From PubChem BioAssay AID1745853 (National Center for Advancing Translational Sciences (NCATS), 2022)
The other results are listed elsewhere or left out. The main result of the screen is listed elsewhere. These columns were measured beside it and carry no call.

How the values were obtained:
Assay in all cases: Primary Screen for Target Class Profiling of Small Molecule Inhibitors of Methyltransferases
[1] = target: Glycine N-methyltransferase (Homo sapiens) (UniProt Q14749); settings: purified enzyme, MTase-Glo SAH luminescence; measured here: GNMT inhibition; at 40 µM; stronger effect = lower value
Summary of the method: (§1)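 Each enzyme was assayed with SAM and its substrate. SAH formation detected by MTase-Glo luminescence; single-point 40 uM screen[…].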

[2] = target: Guanidinoacetate N-methyltransferase (Homo sapiens) (UniProt Q14353); settings: purified enzyme, MTase-Glo SAH luminescence; measured here: GAMT inhibition; at 40 µM; stronger effect = lower value
Summary of the method: as §1

[3] = target: Histamine N-methyltransferase (Homo sapiens) (UniProt P50135); settings: purified enzyme, MTase-Glo SAH luminescence; measured here: HNMT inhibition; at 40 µM; stronger effect = lower value
Summary of the method: as §1

[4] = target: Nicotinamide N-methyltransferase (Homo sapiens) (UniProt P40261); settings: purified enzyme, MTase-Glo SAH luminescence; measured here: NNMT inhibition; at 40 µM; stronger effect = lower value
Summary of the method: as §1

[5] = target: Phenylethanolamine N-methyltransferase (Homo sapiens) (UniProt P11086); settings: purified enzyme, MTase-Glo SAH luminescence; measured here: PNMT inhibition; at 40 µM; stronger effect = lower value
Summary of the method: as §1
% is scaled to controls: 0 for no effect and ±100 for the full control effect.

| Structure (SMILES) | activity change, negative = inhibition [1] [%] | activity change, negative = inhibition [2] [%] | activity change, negative = inhibition [3] [%] | activity change, negative = inhibition [4] [%] | activity change, negative = inhibition [5] [%] |
| --- | --- | --- | --- | --- | --- |
| Cn1c(=O)n(C)c2cc(S(=O)(=O)NCc3ccc4c(c3)OCO4)ccc21 | -1.72 | 6.84 | -4.32 | -4.95 | -4.74 |
| CNC(=O)c1cccc(-c2ccccc2COc2ccc(CCOC)cc2)n1 | -5.32 | 0.983 | -0.953 | -7.63 | 11.5 |
| CN(Cc1cccc(N2CCN(C(c3ccccc3)c3ccccc3)CC2)c1)[S+](C)(=O)[O-] |  | -10.4 |  | -18.6 | 2.87 |
| COc1ccc(NC(=O)N2CCn3cccc3C2C(C)C)cc1 (stereo unspecified) | 17.1 | 2.22 | 10.1 | 9.64 | 9.72 |
| Cc1nc(CN(C)c2ncnc3ccc(-c4ccc5c(c4)OCO5)cc23)cs1 |  | -86.3 |  | -91 | -91.7 |
| COc1cc(NC(=O)Cn2nc3n(Cc4ccc(C)cc4)c(=O)c4ccccc4n3c2=O)cc(OC)c1 | 5.48 | 10.2 | 8.93 | 1.13 | 4.35 |
| COc1cccc(CN2C(=O)c3c(NC(C)=O)c4ccccc4n3CC2(C)C(=O)NCCC(C)C)c1 (stereo unspecified) | 4.97 | 2.95 | 4.8 | -1.7 | 3.92 |
| CCc1ccc(-c2cc3n(n2)CC(C)(C(=O)NC2CCCCC2)N(CCN2CCOCC2)C3=O)cc1 (stereo unspecified) | 5.87 | 0 | 6.16 | 8.58 | -14.7 |
| Cn1ccnc1CN1C[C@@H](F)[C@@H](OCc2nc3ccccc3[nH]2)C1 | -6.48 | -10.9 | -4.2 | -17 | -10.5 |
| CC1(C(=O)NC2CCCCCC2)Cn2c(cc3ccccc32)C(=O)N1CCN1CCOCC1 (stereo unspecified) | 0.661 | 5.36 | 3.86 | -0.776 | -2.42 |
| CCC1(N2CCN(C(=O)Nc3cc(C)ccc3OC)CC2)CCN(C(=O)C(C)C)C1 (stereo unspecified) | -7.82 | -6.96 | -20.3 | -11 | -0.995 |
| CC(=O)O[C@@H]1C[C@]2(C)[C@@]3(CCC4[C@@]5(C)CC[C@H](O[C@@H]6O[C@H](C(=O)O)[C@@H](O)[C@H](O[C@@H]7O[C@H](CO)[C@H](O)[C@H](O)[C@H]7O[C@@H]7O[C@@H](C)[C@H](O)[C@@H](O)[C@H]7O[C@@H]7OC[C@](O)(CO)[C@H]7O)[C@H]6O[C@@H]6O[C@H](CO)[C@H](O)[C@H](O)[C@H]6O)C(C)(C)C5CC[C@]42C)O[C@@H](O)[C@]12C3CC(C)(C)[C@@H](OC(=O)/C=C/c1ccc(O)c(O)c1)[C@@H]2OC(=O)/C=C/c1ccccc1 (stereo partly specified) | 1.51 | 4.77 | 6.75 | -9.5 | 7.47 |
| O=C(CCc1nnc2n(Cc3ccc(Cl)cc3)c(=O)c3ccccc3n12)NCc1ccc2c(c1)OCO2 | 1.46 | 3.42 | 1.98 | 9.91 | -1.35 |
| CC1OC(OC2C(CO)OC(OCC3OC(OC(=O)C45CCC(C)(C)CC4C4=CCC6C7(C)CCC(OC8OC(CO)C(O)C(OC9OC(CO)C(O)C(O)C9O)C8O)C(C)(C)C7CCC6(C)C4(C)CC5)C(O)C(O)C3O)C(O)C2O)C(O)C(O)C1OC1OC(CO)C(O)C(O)C1O (stereo unspecified) | 0.484 | 6.49 | 8.62 | -6.2 | -1.63 |
| CC(=O)Nc1ccc(S(=O)(=O)Nc2ccc3c(c2)n(C)c(=O)n3C)c(C)c1 | 1.59 | 2.73 | -0.024 | 3.52 | -9.66 |
| CC(C)Cn1c(=O)c2ccccc2n2c(SCc3c(F)cccc3Cl)nnc12 | -1.21 | 4.69 | 1.7 | -8.66 | -4.05 |
| O=C(CCNc1c(-c2cccc(F)c2)nc2cnccn12)NCc1ccc(Cl)cc1 | -15.9 | -8.79 | -8.97 | -21.1 | -8.61 |
| Cn1cc(-c2cnc3ccc4ccc(CS(=O)(=O)NCc5ccccn5)cc4c(=O)c3c2)cn1 | -11.6 | -9.65 | 2.51 | -19.4 | -52.6 |
| CC(C)=CCC[C@](C)(O[C@@H]1O[C@H](CO)[C@@H](O)[C@H](O)[C@H]1O)[C@H]1CC[C@]2(C)[C@@H]1[C@H](O)CC1[C@@]3(C)CC[C@H](O)C(C)(C)C3[C@@H](O[C@@H]3O[C@H](CO)[C@@H](O)[C@H](O)[C@H]3O)C[C@]12C (stereo partly specified) | 0 | 4.97 | 12.6 | -6.52 | 0.447 |
| COc1cc(O[C@@H]2O[C@H](CO[C@H]3OC[C@](O)(CO)[C@H]3O)[C@@H](O)[C@H](O)[C@H]2O)cc(OC)c1O | 2.53 | 1.39 | 11.2 | -10.8 | -7.3 |
| O=C(CCc1nnc2n(Cc3ccccc3Cl)c(=O)c3ccccc3n12)N1CC=C(c2ccccc2)CC1 | -8.09 | 6.23 | 0.922 | -4.01 | -1.99 |
| CN1c2cc(C(=O)NC3CCCCCC3)ccc2C(=O)N2CCCC21 (stereo unspecified) | -1.5 | -2.2 | -0.316 | -7.17 | 13.9 |
| Cc1nc(CCNc2cc(C3CC(O)C3)nc(N)n2)nc2c1CCC2 (stereo unspecified) | -4.97 | -4.81 | -5.35 | -10.3 | -7.19 |
| CCc1cnc(N2CCC(c3nc(COc4ccc(-n5cnnn5)cc4)cs3)CC2)nc1 | 1.88 | -3.07 | 11.4 | -22.5 | -3.24 |
| Cc1ccccc1N1CCN(S(=O)(=O)C[C@]23CC[C@H](C[C@@H]2NC(=O)[C@@H](N)CCS(C)(=O)=O)C3(C)C)CC1 | 1.52 |  | 11.6 |  |  |
| Cc1cc2c(cc3n2CC(C)(C(=O)NC2CCCCCCC2)N(CCN2CCCC2)C3=O)o1 (stereo unspecified) | 2.34 | 0.529 | -5.21 | 6.42 | 2.79 |

| Structure (SMILES) | activity change, negative = inhibition [1] [%] | activity change, negative = inhibition [2] [%] | activity change, negative = inhibition [3] [%] | activity change, negative = inhibition [4] [%] | activity change, negative = inhibition [5] [%] |
| --- | --- | --- | --- | --- | --- |
| C[C@@H]1O[C@@H](O[C@H]2[C@H](OC(=O)[C@]34CCC(C)(C)C[C@H]3C3=CCC5[C@@]6(C)C[C@H](O)[C@H](O[C@@H]7O[C@H](CO)[C@@H](O)[C@H](O)[C@H]7O)[C@@](C)(CO)C6[C@H](O)C[C@@]5(C)[C@]3(C)C[C@H]4O)OC[C@H](O)[C@@H]2O)[C@H](O)[C@H](O)[C@H]1O[C@@H]1OC[C@@H](O)[C@H](O[C@H]2OC[C@](O)(CO)[C@H]2O)[C@H]1O (stereo partly specified) | 6.1 | 4.04 | 11 | -11 | 8.97 |
| CC(O)/C=C/C1C(C)C(O[C@@H]2O[C@H](CO)[C@@H](O)[C@H](O)[C@H]2O)C(O)CC1(C)C (stereo partly specified) | 0.757 | 0.933 | 11 | -13.8 | -10.4 |
| CC1CCCCC1NC(=O)C1(C)Cn2c(nc3ccccc32)C(=O)N1Cc1ccc(F)cc1 (stereo unspecified) | -5.33 | 3.09 | -2.74 | -5.94 | -2.88 |
| Cc1nc([C@@H]2CN(C(=O)CCc3c[nH]c4ccccc34)C[C@H]2C(N)=O)n[nH]1 | -3.41 | -6.45 | -1.56 | -9.76 | -6.08 |
| NC[C@H](O)c1ccc(O)c(O)c1 | -55 | 4.54 | 3.12 | -13.5 | 24.2 |
| Cc1ccc(C)c(NC(=O)Cn2c(=O)oc3cc(S(=O)(=O)NCc4ccccc4)ccc32)c1 | 2.25 | 1.5 | 9.2 | 9.24 | 2.68 |
| O[C@@H]1C[C@@H](c2nc(-c3ccccn3)no2)N(Cc2cc3ccccc3o2)C1 | -8.69 | -9.55 | -4.15 | -22.4 | -10.2 |
| CC#CCn1c(N2CCC[C@@H](N)C2)nc2c1c(=O)n(Cc1nc(C)c3ccccc3n1)c(=O)n2C |  | 5.54 |  | -10.4 | 3.73 |
| CN(C)Cc1cc(CC2(NCc3cccc4c3OCO4)COC2)no1 | -6.78 | -4.67 | -1.2 | -15.4 | -5.12 |
| Cc1ccccc1CN1C(=O)c2cc3sccc3n2CC1(C)C(=O)NC1CCC(C)CC1 (stereo unspecified) | -1.13 | -0.076 | -6.22 | -5.58 | -8.48 |
| Cc1cc(=O)n(CC(=O)N2CCCC(C)(c3ccccc3)C2)nc1C (stereo unspecified) | -5.64 | -9.82 | -2.54 | -12.4 | -7.1 |
| CC1(C(=O)NC2CCCCC2)Cn2c(ccc2-c2ccco2)C(=O)N1CCN1CCOCC1 (stereo unspecified) | 0.411 | 2.45 | 6.85 | 5.74 | 1.18 |
| CCCn1c(=O)c2ccc(Cl)cc2n2c(SCc3ccccc3)nnc12 | -2.12 | -0.985 | -1.35 | -4.32 | -4.54 |
| COc1ccc(-c2cc3n(n2)CC(C)(C(=O)NCc2ccccc2)N(c2cc(Cl)ccc2C)C3=O)cc1 (stereo unspecified) | 4.96 | 6.09 | 10.2 | 10.2 | 2.72 |
| O=c1cc(CN2CCCC(c3nccn3Cc3ccccc3)C2)[nH]c(=O)[nH]1 (stereo unspecified) | -7.02 | -4.98 | -19.5 | -5.9 | -5.86 |
| Cc1ccc(C(=O)Cn2nc3n(CC(C)C)c(=O)c4ccc(C(=O)NC(C)C)cc4n3c2=O)cc1 | 3.44 | 3.08 | 4.97 | -6.44 | 0.194 |
| COCCn1cnnc1C(C)NC(=O)CCc1nc(-c2ccccc2OC)no1 (stereo unspecified) | -2.56 | -3.77 | -0.859 | -7.58 | -3.31 |
| CC1(C(=O)NCc2ccccc2)Cn2nc(-c3ccccc3)cc2C(=O)N1CCc1ccc(Cl)cc1 (stereo unspecified) | 6.12 | 0.228 | 6.25 | 9.18 | 3.26 |
| CC(C)Oc1ccc(CNC(=O)c2cc3n(n2)CC(C)(C(=O)NC2CCCCC2)N(C)C3=O)cc1 (stereo unspecified) | -4.61 | -6.43 | 6.25 | -4.02 | -5.92 |
| COc1ccc(Oc2c(Cl)cnn(C3c4ccccc4-c4ccccc43)c2=O)cc1 | -3.55 | -27 | -2.58 | -32.9 | -4.22 |
| CN(CCCN1C(=O)c2cc3occc3n2CC1(C)C(=O)NC1CCCCCC1)C1CCCCC1 (stereo unspecified) | -10.1 | 1.31 | -9.65 | -1.01 | -6.86 |
| Cn1cncc1C(=O)N1CCC2(CC1)CNC(C(=O)O)C2 (stereo unspecified) | -0.747 | -4.6 | 0.346 | -5.57 | -0.155 |
| CC(C)CNC(=O)c1ccc2c(=O)n(C(C)C)c3nn(CC(=O)Nc4ccccc4)c(=O)n3c2c1 | 3.67 | 2.12 | 7.86 | 5.66 | 9.27 |
| CS(=O)(=O)c1ccc(OC[C@H]2C[C@@H](NC(=O)c3ccccc3)[C@H](O)[C@@H]2O)cc1 | -1.54 | -3.74 | -2.07 | -7.28 | 8.1 |
| CC1CCCCN1CCCNC(=O)Cn1ccc2cc(S(=O)(=O)N3CCCCC3)ccc21 (stereo unspecified) | 4.18 | 0.083 | -44.7 | 1.45 | -1.24 |
| CCCNC(=O)c1ncn2c1C(=O)N(C1CC1)C(C)(C(=O)NCc1cccc(C)c1)C2 (stereo unspecified) | 0.26 | 0 | 3.33 | 0.475 | 1.53 |
